Laboratory results published in the supplement of paper PMC10126150.
Values marked as one replicate rest on one cluster of the flow cell; about a third of the high ones do not repeat.

System: ATP
Experiment: switch fluorescence ratio, 500 uM ATP over buffer (Cy3 cluster intensity, sum of 5 cycles each) (fold (ratio)); higher = stronger signal-on switching upon ATP binding; sequences stand for … in TCGTCGGCAGCGTCAGATGTGTATAAGAGACAGTTTTTTTTTTTTTTTTTTTTTTTTT…TC
Conditions: aptamer strand: ATP DNA aptamer (quencher-CACCTGGGGGAGTATTGCGGAGGAAGG + anchor), 100 nM annealed; ATP concentration: 500 uM; one replicate
In short: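 Cy3-labelled switching-strand clusters on a modified Illumina MiSeq flow-cell were annealed to 100 nM quencher-labelled ATP aptamer and imaged first in selection buffer, then after 15 min with 500 uM ATP at 22 °C. NaOH stripping and re-annealing separated each of five buffer/ATP cycles, and clusters outside 100-1000 RFU were excluded. The fluorescence ratio sums target-cycle Cy3 intensity over buffer-cycle Cy3 intensity per cluster and averages it per switch-domain sequence.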
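Further: ATP exposure 15 min at 22 °C before imaging.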

| Sequence | switch fluorescence ratio |
| --- | --- |
| TAATTACGTG | 1.01 |
| CGGAGACCAT | 0.997 |
| TCCCGGGAAC | 1.01 |
| ATAGGATGA | 0.991 |
| CGGAGAATGT | 0.991 |
| ACCTAGCGGT | 1.03 |
| TGGTCATATT | 0.984 |
| GGTCTTACGC | 1.05 |
| CATCAGAAGC | 1.01 |
| GTTTTCACAA | 0.991 |
| GGTGTGCCA | 0.967 |
| TTAAAGACGC | 1.03 |
| GGTGTCAATG | 0.975 |
| TACATGTATA | 0.992 |
| TATTGCGACT | 0.987 |
| TTTCACAAGT | 1.01 |
| TTCCAATTTA | 1.03 |
| TCTACTGTGA | 0.996 |
| AGAGGTTTTA | 0.994 |
| CGCATGGCTC | 1.96 |
| TTGCGTCAT | 1.07 |
| ACTAGTAAA | 0.992 |
| GGACCGTCCA | 0.972 |

| Sequence | switch fluorescence ratio |
| --- | --- |
| CATCTCAAAG | 1.03 |
| AAAACTGCT | 0.96 |
| TCTAGTGCGT | 0.982 |
| AATCAACCAC | 1.09 |
| AAAGGTGT | 1.21 |
| CTGTTGCGCT | 1.04 |
| ACGTGAAAAT | 1.1 |
| CGTTGAATTA | 1.01 |
| TATTAGTGAC | 0.996 |
| TAGTTCCGTT | 1.03 |
| TCAGTGCGGC | 0.972 |
| ATCAAGTATT | 1.02 |
| GCTCGGGTAT | 0.981 |
| CGACGTATTA | 1.06 |
| GGGGGCACAC | 0.963 |
| TTTGATGCAC | 1.15 |
| TCGGTCAGCG | 1.01 |
| CTTGTACCTG | 1.08 |
| AGACGAGGGG | 1.03 |
| ACGGTGCGGC | 1.11 |
| CTTCTGGTAA | 1.03 |
| GGTGCTAGG | 0.984 |
| AGACCGCAGA | 1.09 |

| Sequence | switch fluorescence ratio |
| --- | --- |
| ATCGGGCCGT | 0.975 |
| GTACTTACAC | 1.15 |
| CTCGTATCGT | 0.99 |
| TGGTCGGT | 0.965 |
| GGCTTCACAC | 1.06 |
| GATAGAATAT | 1.01 |
| GTCCAGCTCG | 1.03 |
| GAAACGTGTT | 0.977 |
| AGCCTTATTT | 0.999 |
| TGTCGAGGTT | 0.944 |
| CCGGCTTTGA | 1.04 |
| TGGCAATAGG | 1.25 |
| GCCGGGTGCA | 0.999 |
| TCAGACTATC | 0.978 |
| TACTCAGAAG | 1.06 |
| TTGCATGAAG | 1.01 |
| GGTGGCCCA | 0.965 |
| TCTTGTCCTA | 0.993 |
| ACACGCTTGA | 1.05 |
| ATCAAAAGG | 1.06 |
| ATTGTAACAT | 1.02 |
| AGTTATGAGG | 0.984 |
| GGCAGTTCTG | 1.02 |

| Sequence | switch fluorescence ratio |
| --- | --- |
| AAAAAGCAGC | 0.984 |
| ATTAAGCCGG | 0.966 |
| AAACTAGGAT | 1.03 |
| ACATAGAAGT | 1.03 |
| AAGTACGTGA | 1.21 |
| TTTAGTGTA | 1 |
| GACTGTCTCG | 0.894 |
| AAGTGTACCG | 1.06 |
| TGGACTCTTG | 0.996 |
| TAACTAGAAA | 1.01 |
| GTTATTCATC | 1.02 |
| ATAAAGCGG | 0.996 |
| TTGAATGGTG | 1.03 |
| CAGTGCCGA | 1.06 |
| GTTCTTCTCG | 1.06 |
| GTTAGGTTAC | 1.04 |
| AGGTGAGCAG | 1.02 |
| AAACGGTGCT | 1 |
| TAAACGAGTT | 1 |
| AGCCGCGC | 1.02 |
| TACCTAGTAC | 1.13 |
| GCCTAGCGCT | 1.29 |
| GTTACCATCG | 0.978 |

| Sequence | switch fluorescence ratio |
| --- | --- |
| TGTAAACCAT | 0.965 |
| ATAACCTCAG | 1.07 |
| GCCGTATCAG | 0.98 |
| TCTTCGTGCG | 1.02 |
| GTCTCCACG | 1.03 |
| CGAAAAAAG | 0.997 |
| AAAGTTGATG | 0.994 |
| TAAAATGCTC | 1.16 |
| GTTCCGTAT | 1.02 |
| GCCGGAGGAC | 1.1 |
| ACTTAGCGCG | 1.06 |
| GGGTTTCATT | 1.16 |
| TTCGATGAAG | 0.963 |
| ATTTTCTAAT | 0.969 |
| CATCTGACAG | 1.07 |
| TAGTGCGAAT | 1.01 |
| CGTATTGTGT | 0.979 |
| TGGCTCTATC | 0.985 |
| TGTCGCGTAA | 1.04 |
| GTAATATCTC | 1.16 |
| TTTTCTGGAG | 1.26 |
| GCGTAACTAG | 1.06 |
| GATGTGGGAC | 1.04 |

| Sequence | switch fluorescence ratio |
| --- | --- |
| GCTCTATTGT | 1.01 |
| CGTGTGAGGC | 1 |
| TATCCCCGTT | 1.02 |
| GACCACCCGT | 1.01 |
| TGAGGAGCC | 0.929 |
| CATTAAGTAG | 1.01 |
| CAGGCGGTAC | 3.74 |
| CAGTCGAGTA | 0.981 |
| TCTCGGATTT | 1.01 |
| CCGAAGCCGT | 1.72 |
| TGTAGCCGGG | 1.03 |
| TTCGAAGTG | 0.972 |
| GGAAAGGTGG | 1.11 |
| GGGAGTCCAC | 1.04 |
| GAGCCATCAA | 0.991 |
| CAGCTTGA | 0.985 |
| AGTCAGGGCT | 0.971 |
| CGTGGAAGTT | 1.05 |
| AAATACTCTT | 1.13 |
| TTGGACCACG | 0.988 |
| TACTGTTGAC | 1.12 |
| GGTCCTTATT | 1.02 |
| TGGATAGGGA | 0.991 |

| Sequence | switch fluorescence ratio |
| --- | --- |
| CACGGTAGGT | 1.07 |
| GCGAAGCATC | 1.04 |
| GTGAGTTCCG | 0.998 |
| TTATTTGCAC | 1.06 |
| AGTTGCGCG | 0.978 |
| TCCGGGTGAG | 1.21 |
| GGTTGAACTT | 1 |
| ATCTTAGCCT | 1.07 |
| GCTGGGTCAC | 1.01 |
| GATGCTGGTA | 1 |
| CCGACTTCAC | 3.43 |
| TGGGCTTCAG | 0.984 |
| TAGCACTACG | 1.22 |
| ATTAATCGCC | 1.09 |
| ATCTGAATTA | 1.07 |
| GTGTGTCATA | 1.02 |
| AAGGCTACGG | 1.01 |
| GTCATCTGTT | 0.964 |
| TTGTTACTGT | 1.01 |
| AGGAAAATTC | 1 |
